# Measured values taken from a collection of fitness landscapes (doi:10.1016/j.celrep.2020.107928).
# The full ranking holds about 81,000 sequences; the median of “one-hybrid fitness for binding parS DNA” is about -0.17, and the highest 2% start at about 0.51. Some of the results follow.
# B1: Caulobacter ParB omega fusion; a variant is named by its letters at X, in order, B8GW30 (parent)
# chain: MESVVVGEPGMSEGRRGLGRGLSALLGEVDAAPAQAPGEQLGGSREAPIEILQRNPDQPRRTFREEDLEDLSNSIREKGVLQPILVRPSPDTAGEYQIVAGERAWRAAQRAGLKTVPIMVRELDDLAVLEIGIIENVQRADLNVLEEALSYKVLMEKFERTQENIAQTIGKSXSHVANXMRLLXLPDEVQSYLVSGELTAXHARAIAAAADPVALAKQIIEGGLSVRETEALARKAPNLSAGKSKGGRPPRVKDTDTQALESDLSSVLGLDVSIDHRGSTGTLTITYATLEQLDDLCNRLTRGI
# Variants of: B1
# Assay: one-hybrid fitness for binding parS DNA (scaled: cognate 1, non-cognate 0); higher = stronger binding
# Conditions: with parS DNA site
# Summary of the method: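 On M9-minus-histidine containing 0.1 mM IPTG and 5 mM 3-AT, E. coli USO cells with a HIS3 reporter, site 19 bp from the promoter, grew 48 hours at 37°C to select Caulobacter ParB libraries randomised at four specificity codons. Plasmids from before and after were Illumina-sequenced, with three replicate libraries pooled and variants under 10 reads left out. Fitness is the log change in variant-to-wild-type read ratio, rescaled against cognate and non-cognate.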
row,Variant,one-hybrid fitness for binding parS DNA
1,PVHR,≤ 0.2
2,VTPM,≤ 0.2
3,LQTT,≤ 0.2
4,ALPH,≤ 0.2
5,VNME,≤ 0.2
6,TVFI,≤ 0.2
7,RKWS,0.955
8,NFCR,≤ 0.2
9,SVTR,≤ 0.2
10,FPDL,≤ 0.2
11,NKFG,≤ 0.2
12,SIWM,≤ 0.2
13,NEGC,≤ 0.2
14,RKEC,0.893
15,ATQL,≤ 0.2
16,NRQY,≤ 0.2
17,PDEN,≤ 0.2
18,VETA,≤ 0.2
19,KHQI,≤ 0.2
20,PTDV,≤ 0.2
21,QYGA,≤ 0.2
22,LFRN,≤ 0.2
23,PEGL,≤ 0.2
24,DMEL,≤ 0.2
25,SNKS,≤ 0.2
26,LGME,≤ 0.2

row,Variant,one-hybrid fitness for binding parS DNA
1,PARA,≤ 0.2
2,MSQI,≤ 0.2
3,PYMS,≤ 0.2
4,AKWT,≤ 0.2
5,GQHM,≤ 0.2
6,PFGY,≤ 0.2
7,EAGT,≤ 0.2
8,WKYM,≤ 0.2
9,LAMS,≤ 0.2
10,HLVW,≤ 0.2
11,IPVT,≤ 0.2
12,DFLL,≤ 0.2
13,LWVI,≤ 0.2
14,RQQN,0.469
15,QHFG,≤ 0.2
16,THTC,≤ 0.2
17,AFSS,≤ 0.2
18,QWRT,≤ 0.2
19,PTNG,≤ 0.2
20,CCSS,≤ 0.2
21,RKHP,≤ 0.2
22,YSTT,≤ 0.2
23,EFTV,≤ 0.2
24,PSLV,≤ 0.2
25,FPST,≤ 0.2
26,SWYM,≤ 0.2

row,Variant,one-hybrid fitness for binding parS DNA
1,VDDS,≤ 0.2
2,RIMR,≤ 0.2
3,ASDI,≤ 0.2
4,ATRN,≤ 0.2
5,KSLV,≤ 0.2
6,TRHC,≤ 0.2
7,HWNY,≤ 0.2
8,AQTM,≤ 0.2
9,RVTE,≤ 0.2
10,ERNP,≤ 0.2
11,GWRT,≤ 0.2
12,DPMS,≤ 0.2
13,TNDM,≤ 0.2
14,GPVT,≤ 0.2
15,NNNG,≤ 0.2
16,AGPY,≤ 0.2
17,NKAR,≤ 0.2
18,ADFY,≤ 0.2
19,QYTC,≤ 0.2
20,KKQC,≤ 0.2
21,VLTP,≤ 0.2
22,PGQN,≤ 0.2
23,LIGV,≤ 0.2
24,SGSS,≤ 0.2
25,SACA,≤ 0.2
26,MFPE,≤ 0.2

row,Variant,one-hybrid fitness for binding parS DNA
1,GWRY,≤ 0.2
2,DSYG,≤ 0.2
3,DLRF,≤ 0.2
4,IPSI,≤ 0.2
5,SPDS,≤ 0.2
6,GPDI,≤ 0.2
7,ALLE,≤ 0.2
8,HLPG,≤ 0.2
9,HNDS,≤ 0.2
10,LNAN,≤ 0.2
11,TPEG,≤ 0.2
12,KCEG,≤ 0.2
13,LATR,≤ 0.2
14,NKER,≤ 0.2
15,NSFC,≤ 0.2
16,TGDM,≤ 0.2
17,ARPL,≤ 0.2
18,QTKC,≤ 0.2
19,KTTS,≤ 0.2
20,ISIG,≤ 0.2
21,RTGS,0.92
22,KQTG,≤ 0.2
23,CLVK,≤ 0.2
24,QRAG,≤ 0.2
25,SRYV,≤ 0.2
26,LMGR,≤ 0.2

row,Variant,one-hybrid fitness for binding parS DNA
1,NLER,≤ 0.2
2,QPAV,≤ 0.2
3,PSPY,≤ 0.2
4,ITPT,≤ 0.2
5,SHVI,≤ 0.2
6,DSND,≤ 0.2
7,ALQS,≤ 0.2
8,KNHD,≤ 0.2
9,PYEG,≤ 0.2
10,PYVT,≤ 0.2
11,PRTD,≤ 0.2
12,SPNL,≤ 0.2
13,YHLF,≤ 0.2
14,RLYH,0.271
15,AMGR,≤ 0.2
16,HRFT,≤ 0.2
17,QVQM,≤ 0.2
18,PVYT,≤ 0.2
19,RLYR,0.23
20,LQKC,≤ 0.2
21,VNSF,≤ 0.2
22,WIRC,≤ 0.2
23,IWAR,≤ 0.2
24,SYLP,≤ 0.2
25,LFRG,≤ 0.2
26,VLNV,≤ 0.2

row,Variant,one-hybrid fitness for binding parS DNA
1,MYYW,0.381
2,ALGT,≤ 0.2
3,GWRH,≤ 0.2
4,GCGS,≤ 0.2
5,NDFI,≤ 0.2
6,GSRY,≤ 0.2
7,FRKA,≤ 0.2
8,HIFT,≤ 0.2
9,QRIK,≤ 0.2
10,QFSL,≤ 0.2
11,AALK,≤ 0.2
12,QHPH,≤ 0.2
13,DHTT,≤ 0.2
14,EIHR,≤ 0.2
15,QVMP,≤ 0.2
16,PQGA,≤ 0.2
17,QQHA,≤ 0.2
18,HIWT,≤ 0.2
19,GDRL,≤ 0.2
20,TAWL,≤ 0.2
21,NLLT,≤ 0.2
22,LIQG,≤ 0.2
23,GVQG,≤ 0.2
